Test results: PubChem BioAssay AID588591 (National Center for Advancing Translational Sciences (NCATS), 2011)
Hit rate of the full screen: of about 390,000 compounds, about 4,700 (1.2%) were called active. The inconclusive results got no clear call from the source; some entries with a clear call stand among them for comparison. Calls come from the whole dose curve; as a rule, active = well fitted inhibition curve with a large enough effect; inconclusive = small, poorly fitted or top-dose-only effect, or another doubt; inactive = no such curve, though single readings can be large or run the other way. Potencies beside an inconclusive call are fits to weak or partial responses and may not hold up.

biological target: DNA polymerase eta (Homo sapiens) (UniProt Q9Y253); experiment: qHTS for Inhibitors of Polymerase Eta; conditions: recombinant Pol eta, fluorescent DNA replication assay; series mostly up to 114 µM
Summary of the method: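 Pol eta (10 nM) was preincubated with compounds for 15 min at room temperature, after which fluorescent replication substrate (50 nM final) was added to start the reaction. Fluorescence was read kinetically at 0 and 10 min.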
Potency is the fitted concentration of half-maximal effect; tags give direction and shape of the fitted curve.

Sequence of UniProt Q9Y253 (Q9Y253 whole entry, looked up): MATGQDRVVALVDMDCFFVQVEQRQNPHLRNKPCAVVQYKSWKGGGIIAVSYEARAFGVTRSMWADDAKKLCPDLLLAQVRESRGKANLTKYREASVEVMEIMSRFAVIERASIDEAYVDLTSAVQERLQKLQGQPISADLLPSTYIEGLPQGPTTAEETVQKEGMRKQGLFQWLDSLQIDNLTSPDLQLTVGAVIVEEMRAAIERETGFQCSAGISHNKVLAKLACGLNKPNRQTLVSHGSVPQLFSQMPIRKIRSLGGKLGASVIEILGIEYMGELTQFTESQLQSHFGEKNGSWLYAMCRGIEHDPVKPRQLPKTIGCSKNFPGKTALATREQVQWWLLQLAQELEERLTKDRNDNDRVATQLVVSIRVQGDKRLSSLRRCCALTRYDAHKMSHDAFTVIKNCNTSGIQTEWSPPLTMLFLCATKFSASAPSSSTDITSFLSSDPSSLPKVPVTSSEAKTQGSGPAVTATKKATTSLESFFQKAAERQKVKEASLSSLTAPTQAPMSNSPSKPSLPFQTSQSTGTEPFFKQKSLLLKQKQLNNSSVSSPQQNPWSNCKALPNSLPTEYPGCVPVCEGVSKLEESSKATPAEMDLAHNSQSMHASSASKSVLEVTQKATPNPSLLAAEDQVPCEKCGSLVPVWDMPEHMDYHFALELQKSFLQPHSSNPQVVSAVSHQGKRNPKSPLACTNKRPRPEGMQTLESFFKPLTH

Row | SMILES | Potency
1 | COc1ccc(S(=O)(=O)N2CN(Cc3ccco3)c3nc4ccccc4nc32)cc1 | active: 79.4 µM
2 | CCCSc1nc(NCc2ccco2)c2c3c(sc2n1)COC(C)(C)C3 | inconclusive: 100 µM [inhibitor, single point]
3 | Cc1ccc(NC(=O)CCC(=O)c2ccc(Cl)s2)nc1 | active: 39.8 µM
4 | COc1ccc(C(=O)COC(=O)c2ccc(Cl)nc2)c(OC)c1 | inconclusive: 22.4 µM [inhibitor, full curve, poor fit]
5 | CCOC(=O)c1nn2c(C(F)(F)F)cc(-c3ccc(OC)cc3)nc2c1Br | active: 31.6 µM
6 | COc1ccc(/C=N/NC(=O)c2ccn[nH]2)cc1COc1ccc(Cl)cc1Cl | inactive
7 | CCOc1cc(CNc2ccccc2)cc(Br)c1OCc1ccc(F)cc1 | inactive
8 | O=C(Nc1nc2ccc(Cl)cc2s1)c1cc(=O)c2ccccc2o1 | inconclusive: 100 µM [inhibitor, single point]
9 | CCOc1ccc(C(=O)CCC(=O)N(CC)CC(=O)Nc2c(F)cccc2F)cc1 | inconclusive: 50.1 µM [inhibitor, partial curve]
10 | CCCCN(C(=O)c1cc2c(s1)CCC2)c1c(N)n(CC(C)C)c(=O)[nH]c1=O | inconclusive: 22.4 µM [inhibitor, full curve]
11 | O=C(C=Cc1cccc(Cl)c1)c1ccccc1 | inconclusive: 44.7 µM [inhibitor, partial curve]
12 | Cc1cc(C)c(C#N)c(Oc2ccccc2Br)n1 | inconclusive: 39.8 µM [inhibitor, partial curve, poor fit]
13 | COc1ccc2ncccc2c1Cc1c(OC)ccc2ncccc12 | inconclusive: 50.1 µM [inhibitor, partial curve]
14 | Cc1ccc(NC(=O)c2oc3ccccc3c2NC(=O)c2ccc(F)c(F)c2)cc1 | inactive
15 | Cc1ccc(NC(=O)COc2coc(CN3CCc4ccccc43)cc2=O)cc1Cl | inconclusive: 50.1 µM [inhibitor, partial curve]
16 | COc1ccc2c(c1)c(CC(=O)Nc1ccc(C(C)=O)cc1)c(C)n2C(=O)c1ccc(Cl)cc1 | inconclusive: 56.2 µM [inhibitor, partial curve, poor fit]
17 | Cc1c(NC(=O)CSc2nnc(COc3ccccc3)n2-c2ccccc2)c(=O)n(-c2ccccc2)n1C | inactive
18 | COC(=O)CN1C(=O)CSc2ccc(S(=O)(=O)Nc3ccc(C(C)=O)cc3)cc21 | inactive
19 | CCOc1ccccc1Oc1coc2cc(O)ccc2c1=O | inactive
20 | O=C(O)c1ccc(-c2ccccc2)[nH]c1=O | inconclusive: 100 µM [inhibitor, partial curve, poor fit]
21 | COc1ccccc1-c1noc(-c2ccc(NCc3ccco3)c([N+](=O)[O-])c2)n1 | inactive
22 | CCCc1cc(-c2n[nH]c(C)c2-c2ccc(C(=O)OCC)o2)c(O)cc1O | inactive
23 | Cc1ccc(NC(=O)c2cnc(SCC(=O)N3CCOCC3)n(C)c2=O)cc1C | inactive

Row | SMILES | Potency
24 | COc1ccc(CNc2ncc(-c3ccc(Br)cc3)n2C)cc1OC | inactive
25 | O=C1C2C3C=CC(CC3)C2C(=O)N1c1ccc(F)cc1 (centres undefined) | inconclusive: 35.5 µM [inhibitor, partial curve, poor fit]
26 | CCN(CC)c1ccc2cc(-c3nc(-c4cccs4)no3)c(=O)oc2c1 | inactive
27 | Oc1c(Br)cc(Br)cc1C=NCc1ccccc1 | inconclusive: 79.4 µM [inhibitor, partial curve]
28 | COc1cccc2cc(C(=O)NCc3ccco3)c(=Nc3ccc(C(=O)O)cc3)oc12 | active: 89.1 µM
29 | NC(=O)c1c(NC(=O)C2CC=CCC2C(=O)O)sc2c1CCCCC2 (centres undefined) | active: 56.2 µM
30 | CC1(C)N([O-])C2=C(CCCC2)[N+]1=O | active: 22.4 µM
31 | O=C(c1ccco1)N1CCN(c2ccc(Cl)c(Cl)c2)CC1 | inactive
32 | O=C(CCNS(=O)(=O)c1ccc(Br)s1)NCc1ccccc1Cl | inconclusive: 70.8 µM [inhibitor, partial curve, poor fit]
33 | C[C@@H](C(=O)Nc1ccc2ccccc2c1)[C@H]1C[C@]1(C)[C@H](NC(=O)c1cnccn1)c1ccccc1 | inconclusive: 89.1 µM [inhibitor, partial curve, poor fit]
34 | Cc1ccc(C(=O)Oc2coc(CSc3nnc(NC(=O)C4CC4)s3)cc2=O)cc1C | inconclusive: 20 µM [inhibitor, partial curve, poor fit]
35 | CN1/C(=C\C=C(C#N)C#N)C(C)(C)c2ccccc21 | inconclusive: 39.8 µM [inhibitor, single point]
36 | Cc1ccc(NC(=O)C(=Cc2ccc(C(=O)O)cc2)C(=O)Nc2ccc(C)cc2C)c(C)c1 | active: 79.4 µM
37 | CN(C)CCNC(=O)c1ccc2c(c1)NC(=O)C(CS(=O)(=O)Cc1cccc(Br)c1)N2 (centres undefined) | inactive
38 | CCOC(=O)N1CCN(c2cc(NCCC(=O)O)c3c4c(onc24)-c2ccccc2C3=O)CC1 | active: 3.16 µM
39 | O=C(c1ccc(Cl)cc1)C(CN1CCCCC1)c1ccccc1 (centres undefined) | inconclusive: 31.6 µM [inhibitor, partial curve, poor fit]
40 | COc1cc(/C=N/NC(=O)C2c3ccccc3Oc3ccccc32)ccc1O | inconclusive: 20 µM [inhibitor, partial curve, poor fit]
41 | Cc1cc(NC(=O)c2cc(-c3ccncc3)nc3ccccc23)ccc1Br | inconclusive: 28.2 µM [inhibitor, partial curve, poor fit]
42 | Cc1ccc(-c2nc(=S)c3c(n2Cc2ccco2)CCCC3)cc1 | inconclusive: 31.6 µM [inhibitor, partial curve, poor fit]
43 | CCOC(=O)C(=O)Nc1nc(-c2ccc3c(c2)CCN3C(=O)C2CC2)c(C)s1 | active: 14.1 µM
44 | Cc1cc(C)nc(N2CCCC(C(=O)NCc3ccccc3F)C2)n1 (centres undefined) | inconclusive: 100 µM [inhibitor, partial curve, poor fit]
45 | CN(/C=C/C(=C/C=[N+](C)c1ccccc1)OCCCS(=O)(=O)[O-])c1ccccc1 | inconclusive: 56.2 µM [inhibitor, partial curve, poor fit]
46 | CC1Cc2cc(C(=O)O)ccc2O1 (centres undefined) | inconclusive: 35.5 µM [inhibitor, partial curve, poor fit]

Row | SMILES | Potency
47 | C=CCn1cccc(C(=O)Nc2ccc(SC)cc2)c1=O | inconclusive: 89.1 µM [inhibitor, partial curve, poor fit]
48 | CCCn1c(SCc2nc(-c3ccccc3OCC)no2)nnc1-c1ccc(Cl)cc1 | inactive
49 | CCN(CC(=O)Nc1c(F)cccc1F)C(=O)c1ccc(S(=O)(=O)N2CCCCCC2)cc1 | inconclusive: 89.1 µM [inhibitor, partial curve, poor fit]
50 | Cc1cc(C)c(S(=O)(=O)Nc2ccc(-c3cn4ccccc4n3)cc2)c(C)c1 | inconclusive: 50.1 µM [inhibitor, partial curve, poor fit]
51 | O=C1OC(c2ccc(Br)cc2)=N/C1=C\c1ccco1 | inactive
52 | Cc1[nH]n(-c2ncc(-c3ccc(Cl)cc3)s2)c(=O)c1C(c1ccc(Cl)cc1)C(C#N)C#N (centres undefined) | active: 31.6 µM
53 | O=C(CCS(=O)(=O)c1nc(-c2cccs2)cc(C(F)(F)F)n1)Nc1cc(Br)ccc1O | inactive
54 | CCN(CC)CCCN1C=C2C(=O)C(C)(OC(=O)CCC(=O)OC)C(=O)C(Br)=C2C=C1c1ccc(OC)cc1 (centres undefined) | active: 39.8 µM
55 | Cc1ccc(-n2nc3c(N4CCCC(C(=O)NCc5ccc(Cl)cc5)C4)nnc(C)c3c2C)cc1 (centres undefined) | inconclusive: 100 µM [inhibitor, single point]
56 | CCc1ccc(-c2cn3c(n2)sc2cc(C(=O)NCCC4=CCCCC4)ccc23)cc1 | inactive
57 | O=C(Nc1ccc(C2=NCCN2)cc1)c1ccc(C(=O)Nc2ccc(C3=NCCN3)cc2)c([N+](=O)[O-])c1 | inconclusive: 50.1 µM [inhibitor, partial curve]
58 | COc1ccc(OCc2cc(C(=O)N3CCCC(CO)C3)no2)c2ccccc12 (centres undefined) | inconclusive: 15.8 µM [inhibitor, full curve, poor fit]
59 | Cc1cc(C)c(NC(=O)Cn2c(=O)n(Cc3ccc(C(=O)NCc4ccco4)cc3)c(=O)c3sccc32)c(C)c1 | inconclusive: 56.2 µM [inhibitor, partial curve, poor fit]
60 | Cc1cc([N+](=O)[O-])ccc1Nc1nc2ccccc2n2cnnc12 | inconclusive: 28.2 µM [inhibitor, single point]
61 | CN1C(=O)/C(=C/c2ccco2)SC1=Nc1cccc(C(=O)O)c1 | active: 35.5 µM
62 | O=C(O)C1=CCC=CC1C(=O)O (centres undefined) | active: 5.01 µM
63 | O=C1CCCC/C1=C\Nc1ccccc1C(=O)O | inconclusive: 15.8 µM [inhibitor, partial curve, poor fit]
64 | Cc1cc([N+](=O)[O-])c2[nH]c(C(=O)N/N=C/c3ccccc3C(=O)O)c(-c3ccccc3)c2c1 | active: 44.7 µM
65 | CCCC1=NN2C(=N)/C(=C\c3ccc(OCCOc4ccc(NC(C)=O)cc4)c(OC)c3)C(=O)N=C2S1 | active: 79.4 µM
66 | CCc1ccc(C(=O)NC2=NC(c3ccccc3F)CC(=O)N2)cc1 (centres undefined) | inactive
67 | O=C(Nc1ccc(Cl)cc1)N1CCC(c2nc(-c3ccccc3Cl)no2)CC1 | inconclusive: 112 µM [inhibitor, partial curve, poor fit]
68 | Cc1nn(-c2ccccc2)c(N)c1C1(O)C(=O)Nc2ccccc21 (centres undefined) | inconclusive: 89.1 µM [inhibitor, partial curve, poor fit]
69 | CC(C)Cn1c(SC(C)C(=O)NCC2CCCO2)nc2ccc(Cl)cc2c1=O (centres undefined) | inactive
